# The campaign covered roughly 310,000 compounds. About 18,000 (5.8%) were called active. Inconclusive results, whose numbers are uncertain, are shown with a selection of clear calls. Calls come from the whole dose curve; as a rule, active = well fitted inhibition curve with a large enough effect; inconclusive = small, poorly fitted or top-dose-only effect, or another doubt; inactive = no such curve, though single readings can be large or run the other way. No potency is given beside an inconclusive call; the fits are too rough.
# Assay: Primary qHTS for delayed death inhibitors of the malarial parasite plastid, 48 hour incubation
# Conditions: P. falciparum luciferase growth in erythrocytes; series mostly up to 28.7 µM; activity change, negative = inhibition: at the top concentration
# How it was run: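 Firefly luciferase activity from engineered P. falciparum reports growth; inhibitors lower the luminescent signal. Cultures contained 2% hematocrit erythrocytes at 0.1% final parasitemia.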
# % is set by controls: 0 for no effect and ±100 for the full control effect; potency is the fitted concentration of half-maximal effect; tags give direction and shape of the fitted curve.
Structure (SMILES),"activity change, negative = inhibition",Potency
O=C(c1ccc(C(=O)N2CCCc3ccccc32)s1)N1CCCc2ccccc21,inactive: 0%,
COc1ccc2[nH]c(=O)c(CNc3ccccc3OC)cc2c1,inactive: -19%,
O=C(Nc1nnc(-c2ccco2)o1)c1ccc(S(=O)(=O)N2CCOCC2)cc1,,"inconclusive [inhibitor, single point]"
S=C(NNC(=S)NC1CC2C=CC1C2)NC1CC2C=CC1C2 (stereo not given),,"inconclusive [inhibitor, single point]"
CCOc1cc(C(=O)NC(C)c2ccncc2)cc(OCC)c1OCC (stereo not given),inactive: -10.2%,
C=C(C)Cn1c(COc2ccccc2)nnc1SCC(=O)O,,"inconclusive [inhibitor, partial curve, poor fit]"
CC(C)(C)OC(=O)n1cc(CCO)c2ccccc21,,"inconclusive [inhibitor, single point]"
N=c1c(C(=O)NCc2ccc(F)cc2)cc2c(=O)n3ccccc3nc2n1CCCN1CCOCC1,,active: 1.65 µM
Cn1c(N)c(C(=O)COC(=O)c2cc(-c3ccco3)nc3ccccc23)c(=O)n(C)c1=O,,"inconclusive [inhibitor, partial curve]"
c1coc(C2=Nc3cccc4cccc(c34)N2)c1,,"inconclusive [inhibitor, partial curve, poor fit]"
O=C(COc1ccc(F)cc1)N1CCC(Cc2ccccc2)CC1,,"inconclusive [inhibitor, single point]"
CCCC(=O)O[C@]1(C(=O)CO)CC[C@H]2[C@@H]3CCC4=CC(=O)CC[C@]4(C)[C@H]3[C@@H](O)C[C@@]21C,inactive: -7.66%,
Cc1cc(OC(C)C)c2c(-c3ccccc3)cc(=O)oc2c1,,"inconclusive [inhibitor, single point]"
CCOC(=O)C1CCC(CNCc2ccc(Cl)cc2)CC1 (stereo not given),inactive: -11.8%,
O=C(CSc1nc(C(F)(F)F)cc(=O)[nH]1)NCc1ccc2c(c1)OCO2,,"inconclusive [inhibitor, single point]"
COc1ccc(OC)c(C2=Nn3c(nnc3-c3cc(C)[nH]n3)SC2)c1,,"inconclusive [inhibitor, partial curve, poor fit]"
NS(=O)(=O)c1cccc(NC(=O)CSc2nc3ccccc3c(=O)n2CCCN2CCOCC2)c1,inactive: -4.86%,
COc1ccc(NC(=O)c2cc(-c3ccccc3O)n[nH]2)cc1Cl,,active: 2.62 µM
CC(=O)Nc1ccc(NC(=O)CSc2ccc(-c3ccc4c(c3)OCO4)nn2)cc1,inactive: 77.7%,
COCCNC(=O)CCc1c(C)nc2c(c(C)nn2-c2ccc(C)cc2)c1C,,"inconclusive [inhibitor, partial curve]"
C=C(C)CNC(=S)/N=c1\scc(C)n1CC,,"inconclusive [inhibitor, single point]"
CCN(CC)Cc1c(O)ccc2c(=O)c(-c3ccc(Cl)cc3)coc12,,"inconclusive [inhibitor, single point]"
Cc1cc(NN)nc2ccc(Cl)cc12,,"inconclusive [inhibitor, full curve, poor fit]"
CC(C)(C)C1CCc2sc(C(=O)NNC(=O)CCl)cc2C1 (stereo not given),,"inconclusive [inhibitor, partial curve, poor fit]"

Structure (SMILES),"activity change, negative = inhibition",Potency
Cc1nc2sc(C(c3ccccc3)N3CCN(C)CC3)c(O)n2n1 (stereo not given),inactive: 32.3%,
CC(C)Cc1nnc(NC(=O)CCC(=O)N2CCN(CCOC(c3ccccc3)c3ccccc3)CC2)s1,,"inconclusive [inhibitor, single point]"
CCN(CC)S(=O)(=O)c1cc(NC(=O)CNc2cccc(S(=O)(=O)N3CCOCC3)c2)ccc1C,,"inconclusive [inhibitor, partial curve]"
N#Cc1c(NC(=O)CSc2nnc(-c3ccccc3)o2)sc2c1CCCC2,,"inconclusive [inhibitor, partial curve]"
CCC(C(=O)Nc1cc(OC)c(NC(=O)c2ccccc2)cc1OC)c1ccccc1 (stereo not given),inactive: -16.1%,
O=C(NCCC(=O)N(Cc1ccco1)Cc1cccs1)c1ccccc1Cl,,"inconclusive [inhibitor, single point]"
CC(NC(=S)NCCN1CCOCC1)C12CC3CC(CC(C3)C1)C2 (stereo not given),,"inconclusive [inhibitor, partial curve, poor fit]"
CCN(CCNCC(O)COCc1ccc(Cl)cc1)c1cccc(C)c1 (stereo not given),,active: 8.28 µM
COc1ccc(C2/C(=C(\O)c3cc(C)ccc3C)C(=O)C(=O)N2CCN(C)C)cc1OC (stereo not given),inactive: -4.34%,
Cc1ccc2c(c1)N(C(=O)CCC(=O)NCCCN1CCOCC1)CCO2,inactive: 49.4%,
Cc1cccc(N(C(=O)c2snc(C(N)=O)c2N)C(C(=O)NC2CCCC2)c2ccco2)c1 (stereo not given),,"inconclusive [inhibitor, single point]"
COc1ccc(CCNC(=O)COc2ccc(S(=O)(=O)NC3CCCCC3)cc2Cl)cc1OC,,active: 11.7 µM
COC(=O)c1cc(OC)c(OC)cc1NC(=O)CCc1ccc(C)o1,,active: 10.4 µM
COC(=O)C1=C(c2ccc(OC)c(OC)c2)C[C@@H]2CC[C@H]1N2C(=O)NCc1ccc(F)cc1,inactive: -53.4%,
COc1cccc(-c2nc(CS(=O)(=O)CC(=O)Nc3cc(C)ccc3C)c(C)o2)c1,,"inconclusive [inhibitor, single point]"
CC(=O)Nc1cccc(NC(=O)CSc2ccc(-c3cccnc3)nn2)c1,,"inconclusive [inhibitor, partial curve, poor fit]"
COc1cccc(-c2cc(C(=O)Nc3ccncc3)c3ccccc3n2)c1,,active: 0.738 µM
O=C(Nc1cccc(Cl)c1N1CCOCC1)c1ccc2c(c1)OCCO2,,"inconclusive [inhibitor, partial curve, poor fit]"
COc1ccc2oc(=O)c(-c3nc(C)cs3)cc2c1,inactive: 184%,
COc1cc(/C=C/C(=O)OCc2cn3cc(Cl)ccc3n2)ccc1O,,active: 10.4 µM
CC1CCCC(NC(=S)NC(=O)c2ccccc2Br)C1C (stereo not given),,"inconclusive [inhibitor, single point]"
CCOc1ccc(NC(=O)c2ccc(N3CC4CC(C3)c3cccc(=O)n3C4)c(NC(=O)c3cccnc3)c2)cc1 (stereo not given),,"inconclusive [inhibitor, single point]"
OC(CN1CCCCC1)Cn1c2ccccc2c2cc(Br)ccc21 (stereo not given),,active: 11.7 µM
NNC(=S)NC1CC2CC1C1C=CCC21 (stereo not given),,"inconclusive [inhibitor, partial curve, poor fit]"

Structure (SMILES),"activity change, negative = inhibition",Potency
CCOC(C(=O)OCCCN(CC)CC)(c1ccccc1)c1ccccc1,,"inconclusive [inhibitor, single point]"
CC(C)N(Cc1ccccc1)C(=O)CN1C(=O)NC(Cc2ccccc2)(c2ccccc2)C1=O (stereo not given),,"inconclusive [inhibitor, partial curve, poor fit]"
Cc1ccc(CNC(=O)C(=O)NCCC2CCCCN2S(=O)(=O)c2cccs2)cc1 (stereo not given),,"inconclusive [inhibitor, partial curve, poor fit]"
N#CCCN(C(=S)NC(=O)c1cccs1)c1ccccc1F,,"inconclusive [inhibitor, single point]"
COc1ccc(C(c2nnnn2C2CCCC2)N2CCN(C(=O)c3ccco3)CC2)cc1OC (stereo not given),,"inconclusive [inhibitor, single point]"
CCCCC1(Cc2ccc(OC)c([N+](=O)[O-])c2)C(=O)N(c2ccccc2)N(c2ccccc2)C1=O,,active: 1.47 µM
O=C(CN1C(=O)c2ccccc2S1(=O)=O)NC(Nc1ccccc1F)C(Cl)(Cl)Cl (stereo not given),inactive: -1.45%,
CCOC1=C/C(=C/c2c(N)n3nc(S(=O)(=O)CC)sc3nc2=O)C=CC1=O,,"inconclusive [inhibitor, partial curve]"
CC1Cc2ccccc2N1C(=O)CSc1nnc(-c2ccc(S(=O)(=O)N3CCCC3)cc2)o1 (stereo not given),,"inconclusive [inhibitor, partial curve, poor fit]"
Nc1nc(SCC(=O)Nc2cccc(Oc3ccccc3)c2)n[nH]1,inactive: 14.5%,
Cc1ccccc1C(=O)NNC(=O)c1cccn1C,inactive: 60.4%,
COc1cccc(CC2(CO)CCCN(C/C=C/c3ccccc3OC)C2)c1 (stereo not given),,"inconclusive [inhibitor, partial curve]"
Cc1nc2oc3c(NCc4ccccc4)ncnc3c2c2c1COC(C)(C)C2,,active: 11.7 µM
Nc1c(C(=O)C2CC2)sc2nc3c(cc12)CCC3,inactive: 123%,
COc1cccc(NC(=O)CN(C)C(=O)c2cc(S(=O)(=O)N3CCCCCC3)ccc2OC)c1,,"inconclusive [inhibitor, partial curve]"
CCc1ccc2nc(SCC(=O)N(CC)CC)c(C#N)cc2c1,,"inconclusive [inhibitor, single point]"
O=C(O)COc1ccc(/C=N/NC(=O)Cc2ccc(Cl)cc2)cc1,,"inconclusive [inhibitor, single point]"
N#Cc1c(NC(=O)CCC(=O)O)sc2c1CCCCC2,inactive: -9.98%,
O=C(/C=C/c1ccco1)NC(=S)N1CCCCC1,inactive: 38.6%,
COc1ccc(S(=O)(=O)N2CCN(C(C)C(=O)Nc3ccc(C(C)C)cc3)CC2)cc1 (stereo not given),,active: 10.4 µM
S=c1[nH]nc(-c2cc(-c3ccco3)[nH]n2)n1-c1cccc2ccccc12,,"inconclusive [inhibitor, partial curve, poor fit]"
Cc1ccc(C)c(CN2C(=O)C(C)Oc3ccc(C)cc32)c1 (stereo not given),,"inconclusive [inhibitor, partial curve, poor fit]"

# Reference: PubChem BioAssay AID504832 (National Center for Advancing Translational Sciences (NCATS), 2011)
